According to the supplement of paper PMC11417369:
± gives the standard deviation of the averaged measurements. This is one part of the list.

The sequences below were run on PfAP2-G AP2 domain (GST-tagged) (assay: gcPBM binding intensity (ln(normalized median fluorescence intensity)); higher = stronger DNA binding).
Method in brief: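 Binding intensity is defined as the maximum Masliner-normalised natural-log median intensity across replicate spots for either probe orientation. It was measured on an Agilent 4 × 180k array of primer-extended double-stranded 36-bp intergenic genomic probes and negative controls, to which GST-tagged P. falciparum DNA-binding domains made in E. coli were applied for 1 h in 1× PBS with 1% milk, 0.2 mg/ml BSA, 0.5% salmon testes DNA and 0.03% Triton X-100. Detection was by Alexa488 anti-GST antibody and scanning at 488 nm.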

Row | Sequence | gcPBM binding intensity (ln)
1 | ATATTTATATACAAATGTACGCATATAATATATATA [XGTACX_site1232] | 11.4 ± 0.93
2 | AAACAAAAAAAAAAAAAAAAAAAAAAAAAAAAAAAA [GTGCAC_negctrl_site254] | 9.59 ± 0.25
3 | GATGCACTTTAAAAATGTACTTATACCTTTAATTGT [XGTACX_site6395] | 11.1 ± 0.65
4 | AAAGTAAAAATATACTGTACAAATTTTTTCCCCTCT [XGTACX_site171] | 11 ± 0.57
5 | AAAGAAAGCACATACACACACAAAAAAAAAAAAGAA [CACACA_site776] | 10 ± 0.28
6 | ATTTTTTAAAAAGTAACACACACTCTTATAAATAAC [CACACA_site7668] | 10.3 ± 0.16
7 | AGAGATTATAAAATATGTACTAAATATTAAATCTTA [XGTACX_site7050] | 10.8 ± 0.64
8 | AAAAAAATATTATAATATATATATATATATATATAT [GTGCAC_negctrl_site399] | 10.1 ± 0.91
9 | AATATATACATATATGTACACACATTACAGATGTAC [CACACA_site8227] | 11.5 ± 0.73
10 | ATAGAATCTGGTAGCTGTACGAGTCGTAGAGTGCAG [XGTACX_site2026] | 11.4 ± 0.47
11 | AGGACTAATATTTGAACACACATATAATATATACAT [CACACA_site3998] | 9.93
12 | GAATATAAACATATTACACACATCTATAGGTACATT [CACACA_site6983] | 11 ± 0.65
13 | GAAATGTATATTTTTACATGCAAATAAAATATATAA [TGCATGCA_site439] | 9.75 ± 0.014
14 | ATAACGACCTAGACGTGTACATACAAAGGAATGAAA [XGTACX_site4870] | 11.3 ± 0.71
15 | CATACACATAGACACACACACATATATACCTATATA [CACACA_site6644] | 10.1 ± 0.11
16 | TTTTTCTTGAATCGAAGTACTTAGGAGGGGATATTT [XGTACX_site2862] | 11 ± 0.47
17 | ACACAATATATATATTGTACATACACATATTTACTA [XGTACX_site1872] | 11.1 ± 0.83
18 | ATATAAACAAAGCAGTGCACGTAAACAAAACATATA [CACACA_negctrl_site1076] | 10.4 ± 0.18
19 | GTTTGATAACACCTACAAACTCTTTTTTTTTTTTTT [CACACA_negctrl_site1134] | 10 ± 0.13
20 | TATGTATAAATATTAACACACAAAAAAAAAAAAAAA [CACACA_site6938] | 9.67 ± 0.33
21 | AATAAGCAGAAACACACACACAAAAAAAAAAAAAAA [CACACA_site719] | 9.87 ± 0.51
22 | TACGAAAGGTAATATTGTACATTACAAAATTTTATA [XGTACX_site5512] | 10.7 ± 0.5
23 | TATTAAATTATATAGACACACATTATGTATATATAT [CACACA_site345] | 9.865 ± 0.049

Row | Sequence | gcPBM binding intensity (ln)
24 | TATAGATACACTTTGTGTACATAAAAATTGTATTAA [XGTACX_site7137] | 11.4 ± 0.87
25 | AAATTTATAAATTAAAGTACATATTTCTTGAATATT [XGTACX_site859] | 11 ± 0.67
26 | GACTTCTCCATATACACACACCAACAAATATAAAAA [CACACA_site7331] | 10.4 ± 0.5
27 | CATAATATTAAATCAGTGCAAATATACAGAATAAAT [GTGCAC_site9786] | 9.97 ± 0.13
28 | ACATATACATACATATGTACATATACATAAATATAT [XGTACX_site1285] | 11.2 ± 0.57
29 | ATATTTATGTAATGTTTGATTTTTTTTTTATGTGTG [CACACA_negctrl_site1422] | 9.745 ± 0.035
30 | ATAATATGTTATTAAGTGCATATTAATTATTATTAT | 9.89 ± 0.18
31 | AATTTTTCTTTTTTTTGTACAGAATATATATTTTAT [XGTACX_site1419] | 10.8 ± 0.3
32 | TATATATATCTTTTGGTGCATATTTCGAATATATGT | 10.1 ± 0.14
33 | AAAAAAAAAATTGAAAGTACACAAATGGGGTATTAT [XGTACX_site3960] | 11.5 ± 0.87
34 | TACTGTTTAAAATATACACACATAATCAAAAAAAAA [CACACA_site2510] | 10 ± 0.24
35 | TATATATTTACATATTGTACAATATAAAAATAATTA [XGTACX_site19] | 10.9 ± 0.49
36 | TCGTTATCCATCTTCACACATATATATAGTAATATA [CACACA_site5492] | 10.2 ± 0.16
37 | AAATTCAAACAAATTACACACATTTTTTTTTAATTT [CACACA_site3596] | 9.985 ± 0.021
38 | AACCCCAAGCCGTACTGTACATATATTTTTATTTTA [XGTACX_site142] | 11.3 ± 0.74
39 | AAAAGTTGTATTTGCACACATAAAAAAAAGATATTA [CACACA_site3840] | 10.2 ± 0.23
40 | TCAAAGGAATTTTTATGTACATATAAACTTTATTCT [XGTACX_site3432] | 11.2 ± 0.76
41 | AAAAAAAAAAAAAAATGTACATATATATTTATATAT [XGTACX_site229] | 11.1 ± 0.78
42 | AGTATAAAATTTGGTTGTACATTTTTAAAAAAATTA [XGTACX_site7519] | 11.1 ± 0.69
43 | AAAATTAAATTATTTACACACAATATTAAAATATTT [CACACA_site3244] | 9.76 ± 0.16
44 | TAAAATCAATGTTCTTGTACTTAAAATGTTTGTTCT [XGTACX_site5490] | 11 ± 0.57
45 | ATATATCTATATAGAAATGTATATATATATATGTGT [TGCATGCA_negctrl_site349] | 10.2 ± 0.15
46 | TATTATTCTACTATTATATTCTATATTATTTATAGT [CACACA_negctrl_site499] | 9.71 ± 0.17

Row | Sequence | gcPBM binding intensity (ln)
47 | ACAATATATTTTTGAGCATGCGCAAAAGAGAATGCA [TGCATGCA_site566] | 9.91 ± 0.11
48 | ATCCAAAAGAAAAATAGTACAGATATGAACAATATG [XGTACX_site6944] | 11.3 ± 0.65
49 | TATAATATAAAAAAAAGTACACGAATTTTTTTTCAG [XGTACX_site6105] | 11.5 ± 0.96
50 | AAATAAATTTGACCAGTGCAATAACTTTGTATACCT [GTGCAC_site9446] | 10.5 ± 0.35
51 | TACATTTTATGCATTTGTACACAAATAAATAAATAA [XGTACX_site2652] | 11.2 ± 0.81
52 | TTATGCAAAAATAAATCAATATGTTGATATGTAAAT [GTGCAC_negctrl_site128] | 9.78 ± 0.19
53 | AACATATACTGTTTATGTACACATTGTTATATTAAT [XGTACX_site4276] | 11.4 ± 0.75
54 | ATATAATTTAATTTCTGTACATAAGAGAAAAAACAA [XGTACX_site4865] | 11.1 ± 0.64
55 | CTCTTCCTTAATTTTTGTACTTAAAATTTTTTTTTT [XGTACX_site1628] | 11.2 ± 0.73
56 | AAAGAAAAAAAAAAAACACACAAAAAAAATCAAAAT [CACACA_site2871] | 9.77 ± 0.057
57 | TTTTTTTTTTTTTATACACACATTAAAATAAAAAAG [CACACA_site3946] | 10.2 ± 0.41
58 | ATATCAATTTTTGGTGGTACGTAGGAAGTTTCAGAA [XGTACX_site6881] | 11.2 ± 0.74
59 | ACTTTAAAAAGATTCACACAAAATATATAAAAATAT [CACACA_site5334] | 9.875 ± 0.064
60 | TACCTATAAAAGTACACACACACACGGATATAAATA [CACACA_site6569] | 11.5 ± 1
61 | ACTATAAATATATACACATGCGCACACACAAGTGGG [TGCATGCA_site432] | 10.5 ± 0.17
62 | ATTGATCTTTATTGTTGTACATTAAACGTTAATTTT [XGTACX_site1788] | 11.2 ± 0.83
63 | AACATTCTATGTTGCACACAAAGAGAAAAATTTATT [CACACA_site3995] | 10.15 ± 0.035
64 | TGAAGGAATACAGCTCGTACATGTGTAAAGAGATAA [XGTACX_site500] | 10.8 ± 0.35
65 | TAATTTAAATGATGTAGTACATATAAATATATCTAA [XGTACX_site262] | 11.5 ± 0.76
66 | AAAAAGAAAAAACTTACACACATATATACCCCCATG [CACACA_site4463] | 11 ± 0.57
67 | TATTATATAATTTTAACACACAAGAATATAAACTTT [CACACA_site1363] | 9.915 ± 0.049
68 | TAACAAAATGTAAATAAACACACATATATATATATA [CACACA_site8352] | 9.89 ± 0.36
69 | ATGGAAATTTTATCATGTACATATACCGTTGAATAA [XGTACX_site5420] | 11.2 ± 0.67

Row | Sequence | gcPBM binding intensity (ln)
70 | AATAAAAAAATTAAAATTAAAAAATTAAAACTTAAA [CACACA_negctrl_site987] | 9.3 ± 0.23
71 | TGTGGCCCTGCGAGGTGGTCATCATGAATACGAAAA [XGTACX_site1526] | 11.1 ± 0.79
72 | TCAAAAATTTATATAGTGCAATATATATATAATGTA | 9.695 ± 0.092
73 | ACCATTTGTACTTACGCACACATAAAATATATATAT [CACACA_site1545] | 11.5 ± 1
74 | TACTATTTTTATAATACACACATATATTTGTGATAT [CACACA_site1775] | 10.04 ± 0.099
75 | TTAAAAAATATATGCGTGCACTAATATTTCATATGC | 10.3 ± 0.28
76 | TGAATTAACAAATAGACACACATATATATATATATA [CACACA_site3195] | 10.1 ± 0.43
77 | TCATACATTTTCCTTGCACACATTTATAATTAATGT [CACACA_site614] | 10.5 ± 0.17
78 | ATATGTGAATAAAAATGTACGTGTTCTTTTTTTTTT [XGTACX_site320] | 11.2 ± 0.61
79 | AACAAAAAAACAAACACACACACACCCATATATATA [CACACA_site3652] | 9.97 ± 0.16
80 | TTGTAATATATAAAAGTGCATATATGGTTCCATATA [GTGCAC_site9544] | 10.3 ± 0.3
81 | TAATTTATTGTACGTGCATGCTATTTTTTATTTTTA [TGCATGCA_site1059] | 11.5 ± 0.77
82 | GTTATAGAAGCATTCACACACACACCGACATACACA [CACACA_site4914] | 10.3 ± 0.43
83 | AATAATTAAATATATTTATAACAGGAAAATATTTAT [XGTACX_negctrl_site175] | 10.2 ± 0.16
84 | ATAAATTATATTCAAGTGCATGTAACTTATTATTAT | 9.92 ± 0.13
85 | ATATATATATAAATATAAATATATATATATATATAT [CACACA_negctrl_site1685] | 9.93 ± 0.87
86 | TTATAAGATTTATGTACACACATATACACCCCTCTA [CACACA_site4562] | 11.5 ± 0.83
87 | TATATATAGAAACACACACACACATATATATATATT [CACACA_site2539] | 10 ± 0.16
88 | AAAAAAATCACATAATATACTTTATTTTATTTTGTA [GTGCAC_negctrl_site562] | 9.605 ± 0.049
89 | ACAAAGAACTATAATACACACAAGAATATATTGGAT [CACACA_site7771] | 10 ± 0.085
